Data published in the supplement of paper PMC8728848.
Some of the results follow.

What was measured:
Test in all cases: glycan array binding signal (z-score within array); higher = stronger binding
Settings in all cases: glycan notation: IUPAC condensed, linker removed
[1] = molecular target: Fuc(a1-3)[GalNAc(b1-4)]GlcNAc
In short: (§1)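 Arrays were curated from the Consortium for Functional Glycomics database, 3228 in total, and kept only where the protein sequence was available. Binding is expressed as a within-array Z-score. This score was averaged across arrays of the same protein sequence at different concentrations or buffers and across linkers, and negative values can be read as non-binding.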

Fuc(a1-4)GlcNAc = molecular target: Fuc(a1-4)GlcNAc
In short: as §1

Fuc(b1-3)GlcNAc = molecular target: Fuc(b1-3)GlcNAc
In short: as §1

Gal(a1-2)Gal = molecular target: Gal(a1-2)Gal
In short: as §1

Gal(a1-3)Gal = molecular target: Gal(a1-3)Gal
In short: as §1

Gal(a1-3)Gal(b1-3)GlcNAc = molecular target: Gal(a1-3)Gal(b1-3)GlcNAc
In short: as §1

Gal(a1-3)Gal(b1-4)Glc = molecular target: Gal(a1-3)Gal(b1-4)Glc
In short: as §1

Gal(a1-3)Gal(b1-4)GlcNAc = molecular target: Gal(a1-3)Gal(b1-4)GlcNAc
In short: as §1

[2] = molecular target: Gal(a1-3)Gal(b1-4)[Fuc(a1-3)]GlcNAc
In short: as §1

Gal(a1-3)GalNAc = molecular target: Gal(a1-3)GalNAc
In short: as §1

[3] = molecular target: Gal(a1-3)[Gal(a1-4)]Gal(b1-4)GlcNAc
In short: as §1

Gal(a1-4)Gal(b1-4)Glc = molecular target: Gal(a1-4)Gal(b1-4)Glc
In short: as §1

Gal(a1-4)Gal(b1-4)GlcNAc = molecular target: Gal(a1-4)Gal(b1-4)GlcNAc
In short: as §1

Gal(a1-4)GlcNAc = molecular target: Gal(a1-4)GlcNAc
In short: as §1

Gal(a1-6)Glc = molecular target: Gal(a1-6)Glc
In short: as §1

Gal(b1-2)Gal = molecular target: Gal(b1-2)Gal
In short: as §1

Gal(b1-3)Gal = molecular target: Gal(b1-3)Gal
In short: as §1

Gal(b1-3)Gal(b1-4)GlcNAc = molecular target: Gal(b1-3)Gal(b1-4)GlcNAc
In short: as §1

Gal(b1-3)GalNAc = molecular target: Gal(b1-3)GalNAc
In short: as §1

[4] = molecular target: Gal(b1-3)GalNAc(b1-3)Gal(a1-4)Gal(b1-4)Glc
In short: as §1

[5] = molecular target: Gal(b1-3)GalNAc(b1-4)Gal(b1-4)Glc
In short: as §1

[6] = molecular target: Gal(b1-3)GalNAc(b1-4)[Neu5Ac(a2-3)]Gal(b1-4)Glc
In short: as §1

Gal(b1-3)GlcNAc = molecular target: Gal(b1-3)GlcNAc
In short: as §1

[7] = molecular target: Gal(b1-3)GlcNAc(b1-2)Man(a1-3)[Gal(b1-3)GlcNAc(b1-2)Man(a1-6)]Man(b1-4)GlcNAc(b1-4)GlcNAc
In short: as §1

[8] = molecular target: Gal(b1-3)GlcNAc(b1-3)Gal(b1-3)GlcNAc
In short: as §1

[9] = molecular target: Gal(b1-3)GlcNAc(b1-3)Gal(b1-4)Glc
In short: as §1

[10] = molecular target: Gal(b1-3)GlcNAc(b1-3)Gal(b1-4)GlcNAc
In short: as §1

[11] = molecular target: Gal(b1-3)[Fuc(a1-4)]GlcNAc
In short: as §1

[12] = molecular target: Gal(b1-3)[Fuc(a1-4)]GlcNAc(b1-3)Gal(b1-3)[Fuc(a1-4)]GlcNAc
In short: as §1

[13] = molecular target: Gal(b1-3)[Fuc(a1-4)]GlcNAc(b1-3)Gal(b1-4)GlcNAc
In short: as §1

[14] = molecular target: Gal(b1-3)[Fuc(a1-4)]GlcNAc(b1-3)Gal(b1-4)[Fuc(a1-3)]GlcNAc
In short: as §1

[15] = molecular target: Gal(b1-3)[GlcNAc(b1-6)]GalNAc
In short: as §1

[16] = molecular target: Gal(b1-3)[Neu5Ac(a2-6)]GalNAc
In short: as §1

[17] = molecular target: Gal(b1-3)[Neu5Ac(a2-6)]GlcNAc(b1-6)Gal(b1-4)Glc
In short: as §1

[18] = molecular target: Gal(b1-3)[Neu5Ac(b2-6)]GalNAc
In short: as §1

[19] = molecular target: Gal(b1-4)GalNAc(a1-3)[Fuc(a1-2)]Gal(b1-4)GlcNAc
In short: as §1

[20] = molecular target: Gal(b1-4)GalNAc(b1-3)[Fuc(a1-2)]Gal(b1-4)GlcNAc
In short: as §1

Gal(b1-4)Glc = molecular target: Gal(b1-4)Glc
In short: as §1

Gal(b1-4)Glc6S = molecular target: Gal(b1-4)Glc6S
In short: as §1

Gal(b1-4)GlcNAc = molecular target: Gal(b1-4)GlcNAc
In short: as §1

[21] = molecular target: Gal(b1-4)GlcNAc(a1-6)Gal(b1-4)GlcNAc
In short: as §1

[22] = molecular target: Gal(b1-4)GlcNAc(b1-2)Man(a1-3)[Gal(b1-4)GlcNAc(b1-2)Man(a1-6)]Man(b1-4)GlcNAc(b1-4)GlcNAc
In short: as §1

[23] = molecular target: Gal(b1-4)GlcNAc(b1-3)Gal(b1-3)GlcNAc
In short: as §1

[24] = molecular target: Gal(b1-4)GlcNAc(b1-3)Gal(b1-4)Glc
In short: as §1

[25] = molecular target: Gal(b1-4)GlcNAc(b1-3)Gal(b1-4)GlcNAc
In short: as §1

B1: Gal 8 (Homo sapiens), O00214 (protein)
chain: MMLSLNNLQNIIYNPVIPFVGTIPDQLDPGTLIVIRGHVPSDADRFQVDLQNGSSMKPRADVAFHFNPRFKRAGCIVCNTLINEKWGREEITYDTPFKREKSFEIVIMVKDKFQVAVNGKHTLLYGHRIGPEKIDTLGIYGKVNIHSIGFSFSSDLQSTQASSLELTEISRENVPKSGTPQLPSNRGGDISKIAPRTVYTKSKDSTVNHTLTCTKIPPMNYVSKRLPFAARLNTPMGPGRTVVVKGEVNANAKSFNVDLLAGKSKDIALHLNPRLNIKAFVRNSFLQESWGEEERNITSFPFSPGMYFEMIIYCDVREFKVAVNGVHSLEYKHRFKELSSIDTLEINGDIHLLEVRSW
In the case of B1, the “glycan array binding signal (z-score)” value [1] is reported as -0.438, the “glycan array binding signal (z-score)” value (Fuc(a1-4)GlcNAc) is reported as -0.4 and the “glycan array binding signal (z-score)” value (Fuc(b1-3)GlcNAc) is reported as -0.433. The “glycan array binding signal (z-score)” value (Gal(a1-2)Gal) was 0.812, the “glycan array binding signal (z-score)” value (Gal(a1-3)Gal) was -0.43 and the “glycan array binding signal (z-score)” value (Gal(a1-3)Gal(b1-3)GlcNAc) was 1.33. For the same binder, the “glycan array binding signal (z-score)” value (Gal(a1-3)Gal(b1-4)Glc) was 1.17, the “glycan array binding signal (z-score)” value (Gal(a1-3)Gal(b1-4)GlcNAc) was 0.236 and the “glycan array binding signal (z-score)” value [2] was -0.439. For the same binder, the “glycan array binding signal (z-score)” value (Gal(a1-3)GalNAc) was -0.426, the “glycan array binding signal (z-score)” value [3] was -0.445 and the “glycan array binding signal (z-score)” value (Gal(a1-4)Gal(b1-4)Glc) was -0.426. For the same binder, the “glycan array binding signal (z-score)” value (Gal(a1-4)Gal(b1-4)GlcNAc) was -0.422, the “glycan array binding signal (z-score)” value (Gal(a1-4)GlcNAc) was -0.44 and the “glycan array binding signal (z-score)” value (Gal(a1-6)Glc) was -0.443. For the same binder, the “glycan array binding signal (z-score)” value (Gal(b1-2)Gal) was -0.401, the “glycan array binding signal (z-score)” value (Gal(b1-3)Gal) was 0.328 and the “glycan array binding signal (z-score)” value (Gal(b1-3)Gal(b1-4)GlcNAc) was 1.22. For the same binder, the “glycan array binding signal (z-score)” value (Gal(b1-3)GalNAc) was -0.081, the “glycan array binding signal (z-score)” value [4] was 0.445 and the “glycan array binding signal (z-score)” value [5] was 0.32. For the same binder, the “glycan array binding signal (z-score)” value [6] was 0.277, the “glycan array binding signal (z-score)” value (Gal(b1-3)GlcNAc) was 0.393 and the “glycan array binding signal (z-score)” value [7] was -0.302. For the same binder, the “glycan array binding signal (z-score)” value [8] was 0.415, the “glycan array binding signal (z-score)” value [9] was 1.1 and the “glycan array binding signal (z-score)” value [10] was 0.446. For the same binder, the “glycan array binding signal (z-score)” value [11] was -0.413, the “glycan array binding signal (z-score)” value [12] was -0.409 and the “glycan array binding signal (z-score)” value [13] was 0.294. The “glycan array binding signal (z-score)” value [14] was -0.435, the “glycan array binding signal (z-score)” value [15] was 0.021 and the “glycan array binding signal (z-score)” value [16] was -0.133. The “glycan array binding signal (z-score)” value [17] was 0.353, the “glycan array binding signal (z-score)” value [18] was -0.431 and the “glycan array binding signal (z-score)” value [19] was 1.28. For the same binder, the “glycan array binding signal (z-score)” value [20] was -0.376, the “glycan array binding signal (z-score)” value (Gal(b1-4)Glc) was 0.104 and the “glycan array binding signal (z-score)” value (Gal(b1-4)Glc6S) was 0.198. The “glycan array binding signal (z-score)” value (Gal(b1-4)GlcNAc) was -0.032, the “glycan array binding signal (z-score)” value [21] was 0.158 and the “glycan array binding signal (z-score)” value [22] was 0.219. The “glycan array binding signal (z-score)” value [23] was 1.87, the “glycan array binding signal (z-score)” value [24] was 2.43 and the “glycan array binding signal (z-score)” value [25] was 1.86.
